This is one part of the list. Cut-off read from the data, not from the text of the source: active = 25% or less and inactive = the rest. Repeats are few or missing, and single values can be far off.
These compounds were tested on Salmonella enterica serovar Typhimurium SL1344 (assay: intramacrophage bacterial GFP load (SAFIRE), percent of DMSO control (% of DMSO); higher = more intracellular bacteria (less inhibition)). Conditions: 25 µM; system: infected RAW 264.7 macrophages.
Procedure: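 Secondary screen of the 553 primary hits at 25 µM. (i) S. Typhimurium SL1344 grown in Mueller-Hinton broth with 0.5 µg/mL polymyxin B, OD600 read after 18 h. (ii) SAFIRE assay: RAW 264.7 macrophages infected with S. Typhimurium sifB::gfp (MOI 30); compound added 2 h post-infection; cells fixed at 18 h; GFP-positive pixel fraction per macrophage imaged by confocal microscopy and expressed as % of DMSO control.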
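Note: compounds tested were the hits of an earlier 50 µM broth growth screen of a drug-like diversity library run with polymyxin B.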

| SMILES | intramacrophage bacterial GFP load |
| --- | --- |
| CN(Cc1ccc(F)cc1)c1ccc(OCC(=O)NCC2(N3CCOCC3)CCCCC2)nn1 | inactive: 50.4 |
| Cc1ccn(CC(=O)N2CCCC(CCc3ccccc3C)C2)n1 (stereo not drawn) | inactive: 129 |
| O=C(c1ccc(-c2ccccc2)cc1)C1CCCN(C(=O)CCc2ccncc2)C1 (stereo not drawn) | inactive: 71.5 |
| O=C(Nc1cccc(-c2ccc(F)cc2)c1)C1CCCN(Cc2cccnc2)C1 (stereo not drawn) | active: 7.59 |
| CCOC(=O)C1(CC2CC2)CCN(C(=O)C(C)Oc2cccc(Cl)c2)CC1 (stereo not drawn) | inactive: 78.6 |
| CCOC(=O)N1CCC(N2Cc3cc(C)ccc3OC(c3ccsc3)C2)CC1 (stereo not drawn) | inactive: 56.1 |
| COc1ccc(C(=O)N2CCCC(C(=O)c3ccc(Cl)cc3C)C2)cc1 (stereo not drawn) | inactive: 64.5 |
| Cc1ccccc1CNC(=O)c1coc(COc2cccc(F)c2)n1 | inactive: 136 |
| Cc1cnccc1CN(C)C(=O)CC(c1ccccc1)c1ccccc1Cl (stereo not drawn) | active: 3.16 |
| O=C(c1ccc(Oc2ccccc2)cc1)C1CCCN(C(=O)CN2C(=O)CSC2=O)C1 (stereo not drawn) | inactive: 85.8 |
| CCOC(=O)C1(Cc2ccccc2C)CCCN(S(=O)(=O)c2ccsc2)C1 (stereo not drawn) | inactive: 45.5 |
| Cc1c[nH]c(CN(C)C(=O)C2(N3C[C@@H](C)O[C@@H](C)C3)Cc3ccccc3C2)n1 | inactive: 88.8 |
| O=C(c1cccc(N2CCCC2=O)c1)N(Cc1ccncc1)Cc1cccc(OCCc2ccc(F)cc2)c1 | inactive: 133 |
| CCC(=O)C1CCCN(C(=O)C2CCCN(c3nc(C)c4ccc(OC)cc4n3)C2)C1 (stereo not drawn) | inactive: 28.1 |
| C=CC[C@@H]1CC=C[C@@H](c2ccccc2)N1C(=O)CCC1(Cc2ccc(SC)cc2)CCC(=O)N1 (stereo partly drawn) | inactive: 100 |
| O=C(Nc1cccc(-n2cccn2)c1)C1CCCN1C1Cc2ccccc2C1 (stereo not drawn) | inactive: 69.3 |
| CC(C)N1CCC(C(=O)N2CCCC(CCc3ccc(F)c(F)c3)C2)CC1 (stereo not drawn) | inactive: 27.3 |
| Cc1c(CN2CCOc3ccc(C4=CCCCC4)cc3C2)c(=O)n(-c2ccccc2)n1C | active: 3.19 |

From the supplement of paper PMC12889115
